Drawing on PubChem BioAssay AID1240 (Sanford-Burnham Center for Chemical Genomics, 2008), this text covers displacement for 110 compounds.

Structures are written as SMILES. Out of some 50,000 compounds screened, about 800 (1.6%) showed an effect of 50% or more. This is one part of the list.

The assay deals with Bcl-2-like protein 10 (Homo sapiens) (UniProt Q9HD36). The experiment in a line: TR3 peptide-Bcl-B binding displacers, biochemical primary FP assay, phenotype converters (AID 1240).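 Further: 0% = Bcl-B with tracer peptide and DMSO and 100% = tracer peptide lacking Bcl-B.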 The following applies: GST-Bcl-B / FITC-TR3 peptide fluorescence polarization; stronger effect = higher value; compound at 3.75 mg/L.
Sequence of UniProt Q9HD36 (Q9HD36 whole entry, looked up): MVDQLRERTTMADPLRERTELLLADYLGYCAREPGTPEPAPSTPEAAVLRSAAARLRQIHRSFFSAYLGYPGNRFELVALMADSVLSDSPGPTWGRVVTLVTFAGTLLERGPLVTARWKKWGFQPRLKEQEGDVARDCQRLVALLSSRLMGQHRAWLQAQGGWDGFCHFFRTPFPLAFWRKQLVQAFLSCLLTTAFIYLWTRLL
On to `Cc1ccc(/C=N/NC(=O)C(C)Nc2ccc(Cl)cc2)o1` (stereo not given), for which the displacement turned out to be 2.2%.
For `CC1(C)Cc2ccccc2/C(=C/C(=O)Nc2ccc(Cl)cc2Cl)N1`, the displacement is -3.3%.
The result for `OCCCNc1nc2ccccc2n1Cc1ccccc1` reads -6.8%; that for `Cc1cn(S(=O)(=O)c2ccc(Cl)cc2)cn1`, 10.3%; that for `COc1ccccc1-c1coc2cc(OC(C)=O)ccc2c1=O`, 8.2%.
As to `CCN(Cc1ccccc1)C(=O)Cc1ccc(Cl)cc1`, the displacement is -1.3%.
The result for `NC(=O)/C=C/C(=O)Nc1ccc2c(c1)OCO2` reads 8.2%; that for `CCc1ccc(-n2c(C)cc(C=C(C#N)C#N)c2C)cc1`, 0%; that for `Cc1ccc2c(c1)C(c1ccccc1C(F)(F)F)CC(=O)N2` (stereo not given), -7.9%.
As to `Cc1ccc(C(C)C)c(OCC(=O)N/N=C/c2cc(I)cc(I)c2O)c1`, the displacement stood at 10%.
The result for `CC(=O)C1(C)N(O)C(C)(C)C(c2ccc(Br)cc2)=[N+]1[O-]` (stereo not given) reads 14.2%; that for `CN(C)c1ccc(C(=S)N2CCOCC2)cc1`, -7.8%.
Consider `Cc1ccc2[nH]c3c(c2c1)CC/C(=C/N(C)C)C3=O`, for which the displacement is 20.5%.
Consider `CCOc1ccccc1/C=N/NC(=O)Cc1nnc(N)s1`, for which the displacement is 1.9%.
On to `COC(=O)c1cccc(NC(=O)COc2ccc(-c3ccc(C)cc3)cc2)c1`, for which the displacement is 2.5%.
Turning to `CN(C)/C=C1/C(=O)N(c2nc3ccccc3s2)N=C1C(F)(F)F`, the displacement is -14.5%.
Turning to `Cc1ccc(C2OC3(C(=O)c4ccccc4C3=O)C3C(=O)N(c4ccc(C(C)C)cc4)C(=O)C23)cc1` (stereo not given), the displacement is -9.3%.
In the case of `CN1/C(=C\C(=O)Nc2ccc(Br)cc2)C(C)(C)c2ccccc21`, the displacement was determined as 18.9%.
For `CCOc1cc(/C=C2/SC(=S)N(C)C2=O)cc(Br)c1OCc1ccccc1F`, the displacement is -7%.
Take `COc1ccc(/C=C/C(=O)Nc2nc(-c3ccccc3)cs2)cc1`: the displacement is -2.1%.
Regarding `O=C(COc1ccc2ccccc2c1)Nc1ccc(OC(F)(F)F)cc1`, the displacement was determined as 0%.
The result for `CCOC(=O)N1CCN(C(=O)CN(c2ccc(C)cc2)S(=O)(=O)c2ccc(F)cc2)CC1` reads 6.1%; that for `O=C(N/N=C/c1ccc2c(c1)OCCO2)C(=O)Nc1ccc(F)cc1`, -1.4%.
The result for `Cc1cc(C)cc(C=C2C(=O)c3ccccc3C2=O)c1` reads -10.4%.
The result for `Cc1ccc(N2C(=O)NC(=O)/C(=C\c3sccc3C)C2=O)cc1` reads -10.2%; that for `COCCOC(=O)c1ccc(NS(=O)(=O)c2ccc(Cl)cc2)cc1`, 2.9%; that for `COc1ccc(OCC(=O)Nc2ccc(F)c(Cl)c2)cc1`, 7.9%.
With `CC(=O)c1ccc(NC(=O)c2cccnc2)cc1`, the displacement turned out to be 10.3%.
Consider `Cc1ccc(C(=O)O/N=C(\N)c2ccccc2)cc1`, for which the displacement is -9.3%.
The result for `O=C(COc1ccccc1[N+](=O)[O-])N/N=C/C(Br)=C/c1ccccc1` reads 10.5%.
The result for `CC1(C)CC(NC(=O)C(=O)NCCc2ccc(Cl)cc2)CC(C)(C)N1` reads -3%.
In the case of `CN(C)c1cc(NC(=O)CNC(C)(C)CC(C)(C)C)c2ccccc2n1`, the displacement was -3.4%.
Take `CCc1ccccc1NC(=O)C(=O)NCCc1ccc(F)cc1`: the displacement was -0.9%.
Regarding `O=C(COc1ccc(Cl)cc1)NCc1cccnc1`, the displacement was determined as 14.2%.
Regarding `O=C(Nc1ccc(I)cc1)c1ccc2nccnc2c1`, the displacement is -12.3%.
The result for `CC1CCN(C(=O)c2ccc(Br)cc2)CC1` reads -8%.
The result for `CC(=O)Nc1ccc(C(=O)N2CCc3ccccc3C2)cc1` reads 9.6%.
`COC(=O)c1ccc(/C=N/N=C(N)N)cc1`: the displacement is -9.3%.
As to `COc1ccc(-c2nn(-c3ccccc3)cc2/C=N/NS(=O)(=O)c2ccccc2)cc1`, the displacement is -6.4%.
Consider `CCCOc1ccc(C(=S)N2CCN(c3cccc(C)c3)CC2)cc1`, for which the displacement came to 13.1%.
As for `Cc1nn2c3ccccc3nc2n1CCN1CCOCC1`, the displacement is 0.4%.
On to `COc1ccccc1NC(=O)C1=C(C)NC(SCC(=O)c2ccccc2)=C(C#N)C1c1ccccc1` (stereo not given), for which the displacement stood at 0.3%.
The result for `O=C(CC1Nc2ccccc2NC1=O)Nc1cccc(C(=O)O)c1` (stereo not given) reads -2.4%; that for `Cc1ccc2c(Cl)c(C(=O)Nc3ncccc3Cl)sc2c1`, 5%; that for `COc1ccccc1NCn1nnc2ccccc21`, 15.1%.
`COc1cc2c(cc1NC(=O)C/C(C)=N/NC(=O)c1ccoc1C)oc1ccccc12`: the displacement is -22.8%.
As for `CC1CCN(CCCCOc2cccc3ccccc23)CC1`, the displacement is -2.7%.
The result for `COc1ccc(C(=O)CSc2nc(N)cc(=O)[nH]2)cc1` reads 14.1%; that for `O=C(CCc1n[nH]c(=O)[nH]c1=O)N/N=C/c1ccc([N+](=O)[O-])cc1`, 2.6%; that for `O=C(N/N=C/c1cccc([N+](=O)[O-])c1O)/C(=C\c1ccc2c(c1)OCO2)NC(=O)c1ccccc1`, 28.8%.
As to `O=S(=O)(NCCCO)c1ccc2c(c1)Cc1cc(S(=O)(=O)NCCCO)ccc1-2`, the displacement was -1.5%.
Regarding `CC1CCCN(C(=O)Cc2ccc(Br)cc2)C1` (stereo not given), the displacement turned out to be 12.1%.
As to `CC(C)(C)c1ccc(C(=O)N/N=C/c2ccc(O)cc2)cc1`, the displacement was 10.6%.
In the case of `Cc1cccc(N2CCN(C(=O)Nc3ccc(Cl)cc3)CC2)c1C`, the displacement is 11.4%.
On to `CN(C)CCNC(=S)NC(=O)C12CCC3CC(CC(C3)C1)C2`, for which the displacement is -11.3%.
Turning to `COc1ccccc1N1CCN(/N=C\c2cccc(Cl)c2)CC1`, the displacement is -3.1%.
Consider `CCOc1ccc(C(=O)NCC2(C)CC(NC(=O)c3ccc(OCC)cc3)CC(C)(C)C2)cc1` (stereo not given), for which the displacement was determined as 7.1%.
Turning to `Cc1cc(OCC(=O)Nc2ccc(O)c(-c3nc4ccccc4o3)c2)cc(C)c1Cl`, the displacement was -1.4%.
In the case of `O=C(O)C1CCCCC1C(=O)N1CCN(c2ccc(F)cc2)CC1` (stereo not given), the displacement is -7.8%.
In the case of `COc1ccc(CCNC(=O)C2CC(=O)N(c3ccccc3)C2)cc1OC` (stereo not given), the displacement amounted to 1.3%.
`O=C1c2ccccc2NC(c2ccc3c(c2)OCO3)N1c1ccc(F)cc1` (stereo not given): the displacement was 9.9%.
On to `COC(=O)CN(c1cc(Cl)ccc1OC)S(=O)(=O)c1ccccc1`, for which the displacement worked out at 14.7%.
For `O=S(=O)(NCc1ccc2c(c1)OCO2)c1ccc(Cl)cc1Cl`, the displacement was -9.7%.
Turning to `O=C(Nc1nc2ccccc2[nH]1)c1ccc(Cl)c(Cl)c1`, the displacement was -12.9%.
On to `Cc1ccsc1C1NC(=O)c2c(sc3c2CCCC3)N1` (stereo not given), for which the displacement worked out at 1.6%.
With `COc1ccccc1/C=C1\SC(=S)N(C2CCS(=O)(=O)C2)C1=O` (stereo not given), the displacement was 137%.
Regarding `CCOc1cc(/C=C2/SC(=S)N(C)C2=O)cc(Br)c1OCCOc1cccc(C)c1`, the displacement is -11.5%.
With `CCC(=O)Nc1ccc(NC(=O)c2ccc([N+](=O)[O-])cc2)cc1`, the displacement turned out to be 8.5%.
Take `O=C(c1ccc(Cl)c(Cl)c1)N1CCN(c2cccc(Cl)c2)CC1`: the displacement was found to be 2.7%.
As for `O=C1NC(=O)N(c2ccc(Cl)cc2)C(=O)/C1=C/c1ccc(Oc2ccc([N+](=O)[O-])cn2)cc1`, the displacement is 2%.
For `COc1ccc(Br)cc1/C=C/C(=O)N1CCN(c2ccc([N+](=O)[O-])cc2)CC1`, the displacement is 12.3%.
The result for `Cc1nc(C)c(-c2ccccc2)c(=O)[nH]1` reads 13%; that for `O=C(N/C(=C/c1cccc(Br)c1)c1nc2ccccc2[nH]1)c1ccccc1`, 8.7%; that for `COc1cc(/C=N\NC(=O)COc2cccc(Cl)c2)ccc1OC(=O)c1cc(OC)c(OC)c(OC)c1`, 0.2%.
For the compound `COc1ccc(CCNC(=O)CCc2ccccc2)cc1`, the displacement was -6%.
Consider `O=C(O)CN1C(=O)/C(=C\c2ccccc2Sc2ccc(Cl)cc2)SC1=S`, for which the displacement turned out to be 9.8%.
Turning to `Cc1ccc(OCC(=O)Nc2cccc(C#N)c2)c(C)c1`, the displacement was found to be 0.4%.
The result for `COc1ccc(CNCc2cccnc2)cc1` reads 0%; that for `Cc1cccc(-n2c(C)cc(/C=N\NC(=O)c3cccs3)c2C)c1`, -18.2%; that for `O=[N+]([O-])c1ccccc1/C=N/Nc1nnc(-c2ccccc2)c(-c2ccccc2)n1`, 5.2%.
In the case of `Cc1ccc(N2C(=O)c3ccccc3NC2c2ccccc2O)cc1` (stereo not given), the displacement was -8.5%.
In the case of `COc1ccc2[nH]cc(CCNC(=S)Nc3ccccc3)c2c1`, the displacement was -19%.
With `O=C(O)CCc1nc2ccc(O)cc2[nH]1`, the displacement amounted to 5.5%.
The result for `CC(=O)NC(c1ccccc1Cl)c1c(OC(C)=O)ccc2ccccc12` (stereo not given) reads 9%.
Turning to `Cc1ccccc1N(C=O)C(=O)C1C(C)C2C=CC1C21CC1` (stereo not given), the displacement was -4.1%.
Consider `O=C(NCCCNc1ccc([N+](=O)[O-])cc1C(F)(F)F)c1cc(F)c(F)cc1Cl`, for which the displacement came out at 7.8%.
As to `COc1ccc(N2C(=O)/C(=C/c3ccc(OCC(=O)O)c(Br)c3)C(=O)NC2=S)cc1`, the displacement was -0.3%.
The result for `COc1ccc(-c2ccc(/C=C3/SC(NC(C)=O)=NC3=O)o2)c([N+](=O)[O-])c1` reads 4.9%.
`COC(=O)C(C)NC(=O)CCC1CCCCC1` (stereo not given): the displacement was 5.4%.
On to `COCCOC(=O)c1c(C)oc2ccc(OC(=O)c3ccc(OC)cc3)cc12`, for which the displacement stood at 9.4%.
`Cc1ccc(C2Nc3cccc4cccc(c34)N2)s1`: the displacement came to 9.3%.
The result for `C=CCC1(N(CCc2ccccc2)C(C)=O)CCCCC1` reads 1.4%; that for `Cc1ccc(N2CCN(/N=C\c3ccccc3[N+](=O)[O-])CC2)cc1`, -3.2%; that for `O=C(Nc1ccc2nn(-c3ccc(F)cc3)nc2c1)c1ccco1`, 6.6%.
Turning to `CCOC(=O)C1=C(O)/C(=C/c2ccc(O)c(OCC)c2)SC1=Nc1cccc(Cl)c1`, the displacement was -17.3%.
For the compound `COc1cc(OC)c([N+](=O)[O-])cc1/C=C1\C=C(c2ccc(Br)cc2)OC1=O`, the displacement came out at 49.1%.
The result for `C/C(=N\NC(=O)c1cc2ccccc2cc1O)c1ccco1` reads 10%.
`Cc1ccc(NC2CC(C)N(C(=O)c3ccc(F)cc3)c3ccc(C)cc32)cc1` (stereo not given): the displacement is -3.3%.
For `O=C(O)c1ccc(S(=O)(=O)c2ccc3c(c2)C(=O)N(c2ccccc2[N+](=O)[O-])C3=O)cc1`, the displacement was 2.2%.
For the compound `CCOC(=O)C1=NNC(C(=O)OCC)(C(=O)OCC)C1c1ccccc1` (stereo not given), the displacement is -2.6%.
Regarding `Cc1ccc(SCC(=O)Nc2ccccc2Br)cc1`, the displacement worked out at 8.5%.
Take `O=C(Nc1ccc(Cl)c([N+](=O)[O-])c1)C1CC2CCC1C2` (stereo not given): the displacement came out at 4.4%.
With `Cc1cc2c(cc1C)N(C(=O)CSc1nc3ccccc3o1)C(C)(C)c1ssc(=S)c1-2`, the displacement was 2.7%.
The result for `COc1ccc(CCNC(=O)c2cccc([N+](=O)[O-])c2)cc1` reads -10.8%.
As to `O=C(Nc1cccc(Cl)c1)Nc1nnc(-c2ccccc2F)s1`, the displacement was found to be 2.8%.
Take `O=C(CCCN1C(=O)/C(=C\c2ccc(F)cc2)SC1=S)Nc1cc([N+](=O)[O-])ccc1O`: the displacement was found to be 114%.
As to `CC(C)(C)NCCOc1ccc(Cl)cc1`, the displacement came to 15.6%.
The result for `CN(Cc1ccccc1)C(=O)c1cc(Cl)ccc1Cl` reads 12.7%.
In the case of `COc1ccc(CN(CCC(c2ccc(OC)cc2)C2CCOC(C)(C)C2)C(C)=O)cc1` (stereo not given), the displacement was -6.3%.
In the case of `OCCSc1nncn1/N=C/c1c[nH]c2ccccc12`, the displacement worked out at 0.4%.
